Experimental data: PMC5398727, “GP73 represses host innate immune response to promote virus replication by facilitating MAVS and TRAF6 degradation” (PLoS Pathogens, 2017)
These are yes or no findings as the source states them, for the method shown. In cells and extracts the contact can be indirect. Some entries that bind do so weakly or less than the wild type. Where a sequence is shown, tags or fusion partners need not be part of it.

Amino acid sequences for entries named in this document (tags omitted). A change or cut given only in a name is not applied to a line headed by its entry. Residues count along the entry.
UniProt Q7Z434: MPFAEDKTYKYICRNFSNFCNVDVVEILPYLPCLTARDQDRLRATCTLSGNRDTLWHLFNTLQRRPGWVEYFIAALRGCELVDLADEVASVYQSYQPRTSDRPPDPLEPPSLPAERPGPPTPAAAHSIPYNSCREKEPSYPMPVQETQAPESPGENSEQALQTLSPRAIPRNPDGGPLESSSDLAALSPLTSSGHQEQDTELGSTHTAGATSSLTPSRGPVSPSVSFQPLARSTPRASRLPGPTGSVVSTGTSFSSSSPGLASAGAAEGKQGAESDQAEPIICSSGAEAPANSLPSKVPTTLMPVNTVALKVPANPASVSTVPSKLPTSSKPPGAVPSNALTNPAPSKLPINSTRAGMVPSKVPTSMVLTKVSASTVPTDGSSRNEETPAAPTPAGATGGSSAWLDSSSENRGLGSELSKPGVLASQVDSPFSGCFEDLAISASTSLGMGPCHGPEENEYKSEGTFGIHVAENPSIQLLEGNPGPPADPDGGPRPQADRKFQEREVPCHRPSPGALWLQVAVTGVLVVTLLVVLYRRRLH
MAVS (1–440): residues 1-440 of Q7Z434

Experiments:
MAVS (1–440) = MAVS (1–440) (UniProt Q7Z434); experiment: co-IP; HEK293 co-transfected with GP73 plasmid and Flag-tagged (or indicated) plasmids for 24 h; lysis in 50 mM Tris-HCl, 150 mM NaCl, 1% Triton X-100, 1 mM EDTA, 10% glycerol, pH 7.4; immunoprecipitated with anti-Flag (or IgG), washed with 300 mM NaCl buffer, WB; Fig 3B, 3C, 4C-F, S4B (for Fig 4C-F the antibodies are only 'indicated')
[1] = biological target: Flag-MAVS (mitochondrial antiviral signaling protein), full length (UniProt Q7Z434); experiment: as above

- binding (MAVS (1–440)): no binding
- binding [1]: binds
B1: HA-GP73 (Golgi protein 73) (protein, UniProt Q8NBJ4 1-401)
chain: MMGLGNGRRSMKSPPLVLAALVACIIVLGFNYWIASSRSVDLQTRIMELEGRVRRAAAERGAVELKKNEFQGELEKQREQLDKIQSSHNFQLESVNKLYQDEKAVLVNNITTGERLIRVLQDQLKTLQRNYGRLQQDVLQFQKNQTNLERKFSYDLSQCINQMKEVKEQCEERIEEVTKKGNEAVASRDLSENNDQRQQLQALSEPQPRLQAAGLPHTEVPQGKGNVLGNSKSQTPAPSSEVVLDSKRQVEKEETNEIQVVNEEPQRDRLPQEPGREQVVEDRPVGGRGFGGAGELGQTPQVQAALSVSQENPEMEGPERDQLVIPDGQEEEQEAAGEGRNQQKLRGEDDYNMDENEAESETDKQAALAGNDRNIDVFNVEDQKRDTINLLDQREKRNHTL
